# Laboratory results taken from the supplement of paper PMC8728848.
# The list shows a part of the results.
# Legend:
# Test in all cases: glycan array binding signal (z-score within array); higher = stronger binding
# Details in all cases: glycan notation: IUPAC condensed, linker removed
# Gal(a1-3)Gal(b1-3)GlcNAc = molecular target: Gal(a1-3)Gal(b1-3)GlcNAc
# In short: (§1)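 The binding signal is a Z-score computed within each array. Data were drawn from 3228 arrays in the Consortium for Functional Glycomics database, restricted to those with a known protein sequence. Scores were averaged over arrays of the same protein sequence at different concentrations or buffers, and over linkers, and negative values can be taken as non-binding.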
# [1] = molecular target: Gal(a1-3)Gal(b1-3)GlcNAc(b1-2)Man
# In short: as §1
# [2] = molecular target: Gal(a1-3)Gal(b1-3)GlcNAc(b1-2)Man(a1-3)[Gal(a1-3)Gal(b1-3)GlcNAc(b1-2)Man(a1-6)]Man(b1-4)GlcNAc(b1-4)GlcNAc
# In short: as §1
# [3] = molecular target: Gal(a1-3)Gal(b1-3)GlcNAc(b1-3)GalNAc
# In short: as §1
# [4] = molecular target: Gal(a1-3)Gal(b1-3)GlcNAc(b1-6)GalNAc
# In short: as §1
# [5] = molecular target: Gal(a1-3)Gal(b1-3)[Fuc(a1-4)]GlcNAc(b1-2)Man(a1-3)[Gal(a1-3)Gal(b1-3)[Fuc(a1-4)]GlcNAc(b1-2)Man(a1-6)]Man(b1-4)GlcNAc(b1-4)GlcNAc
# In short: as §1
# Gal(a1-3)Gal(b1-4)Glc = molecular target: Gal(a1-3)Gal(b1-4)Glc
# In short: as §1
# Gal(a1-3)Gal(b1-4)GlcNAc = molecular target: Gal(a1-3)Gal(b1-4)GlcNAc
# In short: as §1
# [6] = molecular target: Gal(a1-3)Gal(b1-4)GlcNAc(b1-2)Man
# In short: as §1
# [7] = molecular target: Gal(a1-3)Gal(b1-4)GlcNAc(b1-2)Man(a1-3)[Gal(a1-3)Gal(b1-4)GlcNAc(b1-2)Man(a1-6)]Man(b1-4)GlcNAc(b1-4)GlcNAc
# In short: as §1
# [8] = molecular target: Gal(a1-3)Gal(b1-4)GlcNAc(b1-3)GalNAc
# In short: as §1
# [9] = molecular target: Gal(a1-3)Gal(b1-4)GlcNAc(b1-6)GalNAc
# In short: as §1
# [10] = molecular target: Gal(a1-3)Gal(b1-4)[Fuc(a1-3)]GlcNAc
# In short: as §1
# [11] = molecular target: Gal(a1-3)Gal(b1-4)[Fuc(a1-3)]GlcNAc(b1-2)Man(a1-3)[Gal(a1-3)Gal(b1-4)[Fuc(a1-3)]GlcNAc(b1-2)Man(a1-6)]Man(b1-4)GlcNAc(b1-4)GlcNAc
# In short: as §1
# Gal(a1-3)GalNAc = molecular target: Gal(a1-3)GalNAc
# In short: as §1
# [12] = molecular target: Gal(a1-3)[Gal(a1-4)]Gal(b1-4)GlcNAc
# In short: as §1
# [13] = molecular target: Gal(a1-4)Gal(b1-3)GlcNAc(b1-2)Man(a1-3)[Gal(a1-4)Gal(b1-3)GlcNAc(b1-2)Man(a1-6)]Man(b1-4)GlcNAc(b1-4)GlcNAc
# In short: as §1
# Gal(a1-4)Gal(b1-4)Glc = molecular target: Gal(a1-4)Gal(b1-4)Glc
# In short: as §1
# Gal(a1-4)Gal(b1-4)GlcNAc = molecular target: Gal(a1-4)Gal(b1-4)GlcNAc
# In short: as §1
# [14] = molecular target: Gal(a1-4)Gal(b1-4)GlcNAc(b1-2)Man(a1-3)[Gal(a1-4)Gal(b1-4)GlcNAc(b1-2)Man(a1-6)]Man(b1-4)GlcNAc(b1-4)GlcNAc
# In short: as §1
# [15] = molecular target: Gal(a1-4)Gal(b1-4)GlcNAc(b1-3)Gal(b1-4)Glc
# In short: as §1
# Gal(a1-4)GlcNAc = molecular target: Gal(a1-4)GlcNAc
# In short: as §1
# Gal(a1-6)Glc = molecular target: Gal(a1-6)Glc
# In short: as §1
# Gal(b1-2)Gal = molecular target: Gal(b1-2)Gal
# In short: as §1
# Gal(b1-3)Gal = molecular target: Gal(b1-3)Gal
# In short: as §1
# Gal(b1-3)Gal(b1-4)GlcNAc = molecular target: Gal(b1-3)Gal(b1-4)GlcNAc
# In short: as §1
# Gal(b1-3)GalNAc = molecular target: Gal(b1-3)GalNAc
# In short: as §1
# [16] = molecular target: Gal(b1-3)GalNAc(a1-3)[Fuc(a1-2)]Gal(b1-4)Glc
# In short: as §1
# [17] = molecular target: Gal(b1-3)GalNAc(a1-3)[Fuc(a1-2)]Gal(b1-4)GlcNAc
# In short: as §1
# Gal(b1-3)GalNAc(b1-3)Gal = molecular target: Gal(b1-3)GalNAc(b1-3)Gal
# In short: as §1
# [18] = molecular target: Gal(b1-3)GalNAc(b1-3)Gal(a1-4)Gal(b1-4)Glc
# In short: as §1
# [19] = molecular target: Gal(b1-3)GalNAc(b1-4)Gal(b1-4)Glc
# In short: as §1
# [20] = molecular target: Gal(b1-3)GalNAc(b1-4)[Neu5Ac(a2-3)]Gal(b1-4)Glc
# In short: as §1
# Gal(b1-3)GlcNAc = molecular target: Gal(b1-3)GlcNAc
# In short: as §1
# [21] = molecular target: Gal(b1-3)GlcNAc(a1-3)Gal(b1-4)GlcNAc
# In short: as §1
# [22] = molecular target: Gal(b1-3)GlcNAc(a1-6)Gal(b1-4)GlcNAc
# In short: as §1
# Gal(b1-3)GlcNAc(b1-2)Man = molecular target: Gal(b1-3)GlcNAc(b1-2)Man
# In short: as §1
# [23] = molecular target: Gal(b1-3)GlcNAc(b1-2)Man(a1-3)[Gal(b1-3)GlcNAc(b1-2)Man(a1-6)]Man(b1-4)GlcNAc(b1-4)GlcNAc
# In short: as §1
binder,measurement,setting,value
PX9961C-bth-497-22-497 (Bacteroides thetaiotaomicron) (protein) DWLDLNTTSSVETGQAIVTLDDAQIALNGIYRLASGHSYYGDNYWYYGDCRAADVQARITKGDGKRVSPYYEYNVLASDNLNIVLPWNTVYKVIRQTNNLIQKIESGSIQSSDTKELNRIKSEALVMRGLSLFNLTRLFGMPYTNDKGASLGVPIETSPSDPTHKPSRSTVAQCYEQVVSDMSNALSGLRQETSNGYINYWAAQALLSRVYLNMGEYQKAYDAATDVIKNNGGRYQLYSYEEYPNVWGQDFQSESLFELYITLSEPSGGTGGEGAPMVYANEATVDWNNLILSEDFLNLLNEDPKDVRHCLTKESVIENNTGLPAAAMHEKVYLAKFPGKTGDDPKTNNICIIRLSEVYLNAAEAGLKKGTDIEEAQGYLNDIISRRTTDTSQQVSTETFTLDRILKERRKELVGEGEVFYDYLRNGLAIERKGSWHLETLKASNAQKIEATDLRIALPIPQSEIDANPNIQQNPR,glycan array binding signal (z-score),Gal(a1-3)Gal(b1-3)GlcNAc,-0.49
same,glycan array binding signal (z-score),[1],-0.203
same,glycan array binding signal (z-score),[2],-0.229
same,glycan array binding signal (z-score),[3],-0.489
same,glycan array binding signal (z-score),[4],0.804
same,glycan array binding signal (z-score),[5],-0.078
same,glycan array binding signal (z-score),Gal(a1-3)Gal(b1-4)Glc,0.346
same,glycan array binding signal (z-score),Gal(a1-3)Gal(b1-4)GlcNAc,-0.186
same,glycan array binding signal (z-score),[6],0.338
same,glycan array binding signal (z-score),[7],0.542
same,glycan array binding signal (z-score),[8],-0.646
same,glycan array binding signal (z-score),[9],-0.139
same,glycan array binding signal (z-score),[10],-0.325
same,glycan array binding signal (z-score),[11],0.117
same,glycan array binding signal (z-score),Gal(a1-3)GalNAc,0.054
same,glycan array binding signal (z-score),[12],2.48
same,glycan array binding signal (z-score),[13],-0.118
same,glycan array binding signal (z-score),Gal(a1-4)Gal(b1-4)Glc,-0.164
same,glycan array binding signal (z-score),Gal(a1-4)Gal(b1-4)GlcNAc,-0.304
same,glycan array binding signal (z-score),[14],-0.151
same,glycan array binding signal (z-score),[15],-0.274
same,glycan array binding signal (z-score),Gal(a1-4)GlcNAc,-0.17
same,glycan array binding signal (z-score),Gal(a1-6)Glc,-0.583
same,glycan array binding signal (z-score),Gal(b1-2)Gal,0.181
same,glycan array binding signal (z-score),Gal(b1-3)Gal,0.542
same,glycan array binding signal (z-score),Gal(b1-3)Gal(b1-4)GlcNAc,-0.21
same,glycan array binding signal (z-score),Gal(b1-3)GalNAc,-0.469
same,glycan array binding signal (z-score),[16],-0.046
same,glycan array binding signal (z-score),[17],-0.307
same,glycan array binding signal (z-score),Gal(b1-3)GalNAc(b1-3)Gal,0.6
same,glycan array binding signal (z-score),[18],-0.445
same,glycan array binding signal (z-score),[19],1.34
same,glycan array binding signal (z-score),[20],-0.411
same,glycan array binding signal (z-score),Gal(b1-3)GlcNAc,-0.317
same,glycan array binding signal (z-score),[21],-0.184
same,glycan array binding signal (z-score),[22],-0.401
same,glycan array binding signal (z-score),Gal(b1-3)GlcNAc(b1-2)Man,-0.101
same,glycan array binding signal (z-score),[23],0.717
